Hit rate of the full screen: of about 310,000 compounds, about 2,200 (0.71%) showed an effect of 50% or more. The effect is printed as a negative number. Some of the results follow.

For the test, the target named is human ether-à-go-go-related gene (hERG) potassium channel (human, UniProt Q12809). The test can be described thus: primary screen, population patch clamp on CHO cells stably expressing hERG.
human ether-à-go-go-related gene (hERG) potassium channel, sequence (Q12809 whole entry, looked up): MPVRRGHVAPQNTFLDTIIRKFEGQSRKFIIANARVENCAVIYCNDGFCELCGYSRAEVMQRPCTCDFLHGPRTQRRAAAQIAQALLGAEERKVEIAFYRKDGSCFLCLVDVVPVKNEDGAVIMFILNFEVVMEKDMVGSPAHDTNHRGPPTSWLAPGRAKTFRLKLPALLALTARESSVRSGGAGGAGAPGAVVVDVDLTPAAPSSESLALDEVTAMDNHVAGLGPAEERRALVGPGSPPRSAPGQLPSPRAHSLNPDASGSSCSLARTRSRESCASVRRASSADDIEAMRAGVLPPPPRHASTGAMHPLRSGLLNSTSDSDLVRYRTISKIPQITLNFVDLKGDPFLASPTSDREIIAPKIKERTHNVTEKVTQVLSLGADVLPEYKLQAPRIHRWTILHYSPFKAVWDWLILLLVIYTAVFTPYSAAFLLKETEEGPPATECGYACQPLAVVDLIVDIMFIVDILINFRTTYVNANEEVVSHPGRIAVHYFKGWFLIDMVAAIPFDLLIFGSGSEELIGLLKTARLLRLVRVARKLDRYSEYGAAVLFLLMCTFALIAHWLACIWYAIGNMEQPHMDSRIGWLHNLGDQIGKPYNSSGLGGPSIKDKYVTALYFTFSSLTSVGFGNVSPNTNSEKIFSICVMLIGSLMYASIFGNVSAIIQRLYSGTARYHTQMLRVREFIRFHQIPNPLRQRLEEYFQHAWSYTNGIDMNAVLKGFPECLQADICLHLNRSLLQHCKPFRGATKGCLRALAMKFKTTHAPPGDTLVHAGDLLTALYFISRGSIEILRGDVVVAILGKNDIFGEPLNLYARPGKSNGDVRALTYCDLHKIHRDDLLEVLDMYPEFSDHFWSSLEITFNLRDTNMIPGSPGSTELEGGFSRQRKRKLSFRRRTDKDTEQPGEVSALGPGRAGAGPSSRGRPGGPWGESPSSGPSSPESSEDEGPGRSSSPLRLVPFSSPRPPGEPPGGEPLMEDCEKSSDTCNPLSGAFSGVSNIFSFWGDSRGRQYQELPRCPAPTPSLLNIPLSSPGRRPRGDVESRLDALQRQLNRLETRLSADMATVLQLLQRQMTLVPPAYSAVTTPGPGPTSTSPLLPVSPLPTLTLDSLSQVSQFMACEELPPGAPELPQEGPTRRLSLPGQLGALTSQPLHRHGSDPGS
As for `c1cc(-c2cccs2)nc(-c2cccs2)c1`, the “hERG current change (%, negative = inhibition) at 1uM” value was determined as 2.2%.
The value for `Cc1nc(-c2ccccc2)sc1-c1nnc(C2CC2)o1` was -0.729%; that for `CC1CN(C(=O)Cn2cc(S(=O)(=O)CC(=O)N(C)c3ccccc3)c3ccccc32)CC(C)O1` (centres unmarked) was 10.7%.
For the compound `Cc1cccc(OCC(=O)NCc2ccccc2)c1`, the “hERG current change (%, negative = inhibition) at 1uM” value is 14.3%.
To `COC(=O)CN1C(=O)C2(OCCCO2)c2ccccc21` belongs 5.51%; to `CC(C)c1ccc(N2C(=O)NC(=O)/C(=C\C=C\c3ccco3)C2=O)cc1`, 12.8%.
In the case of `Cc1ccc(OC(C)C(=O)N2CCCc3ccccc32)cc1` (centres unmarked), the “hERG current change (%, negative = inhibition) at 1uM” value was -7.48%.
`CCCn1c2ccccc2c2nnc(SCC(=O)Nc3nnc(CC(=O)OCC)s3)nc21`: the “hERG current change (%, negative = inhibition) at 1uM” value was 12.3%.
To `CN1CCCN(c2ncnc3scc(-c4ccc(F)cc4)c23)CC1` belongs 2.69%.
`COCCN(C(=O)COC(=O)CCn1c(C)csc1=O)c1c(N)n(Cc2ccccc2)c(=O)[nH]c1=O`: the “hERG current change (%, negative = inhibition) at 1uM” value stood at 13.6%.
Turning to `CCOC(=O)C(=CNNc1c(C)csc1C(=O)OC)C(=O)OCC`, the “hERG current change (%, negative = inhibition) at 1uM” value was found to be 16.7%.
To `N#Cc1c2n(c3c(=O)n(Cc4ccccc4Cl)cnc13)CCCCC2` belongs -10.1%; to `CCSc1nc2sc3c(c2c(=O)[nH]1)CCc1ccccc1-3`, -1.6%; to `CN(C)S(=O)(=O)c1cccc(NC(=O)COC(=O)/C=C/c2ccc([N+](=O)[O-])cc2)c1`, -3.19%.
The value for `C=C(C)Cn1c(CCNC(=O)CC)nc2ccccc21` was 0.764%; that for `CCN(c1ccccc1)S(=O)(=O)c1ccc(C(=O)N(CCCN(C)C)c2nc3c(C)cccc3s2)cc1.Cl` was 3.32%.
Turning to `Cc1ccc(C(=O)N2CCN(c3ccc(C(F)(F)F)cn3)CC2)cc1`, the “hERG current change (%, negative = inhibition) at 1uM” value is on record as -2.79%.
The value for `CCOC(=O)C1CCN(C(=O)C(C)Oc2ccc(Br)cc2)CC1` (centres unmarked) was 4.97%.
To `C=CCNCC(=O)NN=C(c1ccccc1)c1ccccc1` belongs -40.8%.
Turning to `O=C(Oc1cccc(-n2cnnn2)c1)C1CCCCC1`, the “hERG current change (%, negative = inhibition) at 1uM” value was -7.64%.
The value for `Cc1cccc(C(=O)OCc2cc(=O)oc3c(C)c(C)ccc23)c1O` was -3.57%; that for `Cc1c(Cl)ccc2c(C(N)=O)cc(-c3ccccn3)nc12` was 9.04%.
`Cc1cc(Br)ccc1OCCNCc1ccccc1.O=C(O)C(=O)O`: the “hERG current change (%, negative = inhibition) at 1uM” value was 11.6%.
With `COc1cc(NC(=O)c2ccc3c(=O)n(Cc4ccco4)c(=S)[nH]c3c2)cc(OC)c1OC`, the “hERG current change (%, negative = inhibition) at 1uM” value is recorded as 10.3%.
The value for `CN(C1CCCCC1)S(=O)(=O)CCNC(=O)c1ccccc1` was 5.09%.
Turning to `CC(=O)Nc1ccc(S(=O)(=O)NC(C)C(=O)NC(C)c2ccccc2)cc1` (centres unmarked), the “hERG current change (%, negative = inhibition) at 1uM” value is 10.7%.
The value for `O=C(CSc1ccc(-c2ccco2)nn1)Nc1ccc(F)cc1F` was -7.44%; that for `COC(=O)[C@@]1(Cc2ccc(F)cc2)[C@H]2c3cc(C(=O)N4CCCC4)n(CCO)c3C[C@H]2CN1C(=O)c1ccccc1` was 2.62%; that for `Cc1nc(CS(=O)c2ccccc2)cc(N2CCOCC2)n1` (centres unmarked) was 4.14%.
To `c1ccc(CCn2nnnc2C(c2cccnc2)N2CCN(c3nc4ccccc4s3)CC2)cc1` (centres unmarked) belongs -40.4%; to `COc1ccc(NC(=O)Nc2ccccc2C(=O)N2CCCC2)cc1`, 5.79%.
As to `C[C@]12CC[C@H](O)CC1=CC[C@@H]1[C@@H]2CC[C@@]2(C)[C@H]1CC[C@]2(C)O`, the “hERG current change (%, negative = inhibition) at 1uM” value is on record as 4.93%.
To `O=C(NC(=S)NCC1CCCO1)c1ccc([N+](=O)[O-])cc1` (centres unmarked) belongs 10.3%; to `O=S(=O)(Nc1ccc(Br)cn1)c1cccs1`, 11.3%; to `CC(=O)N1CCN(c2ccc(NCc3cccc4ccccc34)cc2)CC1`, 4.48%.
With `O=c1[nH]c(CSc2ccccn2)nc2c1cnn2-c1ccccc1`, the “hERG current change (%, negative = inhibition) at 1uM” value was found to be 5.48%.
Regarding `O=C1c2ccsc2SCCN1Cc1cccc(F)c1`, the “hERG current change (%, negative = inhibition) at 1uM” value stood at 5.65%.
To `Cc1nc2c(c(C)nn2-c2ccccc2)c(C)c1C` belongs 7.99%; to `CC(=O)Nc1cccc(N(C(=O)C2COc3ccccc3O2)C(C(=O)NC2CCCCC2)c2cn(C)nc2C)c1` (centres unmarked), 20.4%.
As to `CCOC(=O)C(Cc1ccccc1)NC(=O)CCc1c(C)nc2nc(C)nn2c1C` (centres unmarked), the “hERG current change (%, negative = inhibition) at 1uM” value was 10.3%.
To `CCOC(=O)C(C)n1cnc2c(oc3ccccc32)c1=O` (centres unmarked) belongs 9.75%; to `O=C(NC1CC1)C1CCN(C2CCN(C(=O)c3ccc4cccc(F)c4n3)CC2)CC1`, 4.34%.
For the compound `NS(=O)(=O)c1ccc(-c2ccc(/C=C3\NC(=S)NC3=O)o2)cc1`, the “hERG current change (%, negative = inhibition) at 1uM” value was 9.62%.
For `COc1ccc(-c2nc(CN3CCN(c4cc(C)nc(C)c4)CC3)c(C)o2)c2ccccc12`, the “hERG current change (%, negative = inhibition) at 1uM” value is -12.4%.

The values above are taken from publication PMC4336329 (PLoS ONE, 2015).
